# Assay results published in a collection of fitness landscapes (doi:10.1016/j.celrep.2020.107928).
# Over roughly 81,000 sequences, “one-hybrid fitness for binding parS DNA” has its median near -0.17; the highest 2% begin near 0.51. The list shows a part of the results.
# B1: Caulobacter ParB omega fusion; a variant is named by its letters at X, in order, B8GW30 (parent)
# chain: MESVVVGEPGMSEGRRGLGRGLSALLGEVDAAPAQAPGEQLGGSREAPIEILQRNPDQPRRTFREEDLEDLSNSIREKGVLQPILVRPSPDTAGEYQIVAGERAWRAAQRAGLKTVPIMVRELDDLAVLEIGIIENVQRADLNVLEEALSYKVLMEKFERTQENIAQTIGKSXSHVANXMRLLXLPDEVQSYLVSGELTAXHARAIAAAADPVALAKQIIEGGLSVRETEALARKAPNLSAGKSKGGRPPRVKDTDTQALESDLSSVLGLDVSIDHRGSTGTLTITYATLEQLDDLCNRLTRGI
# Variants of: B1
# Experiment: one-hybrid fitness for binding parS DNA (scaled: cognate 1, non-cognate 0); higher = stronger binding
# Conditions: with parS DNA site
# Summary of the method: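 Fitness is the rescaled log change in variant-to-wild-type read ratio, measured by Illumina sequencing of plasmids before and after bacterial one-hybrid selection. The scale puts cognate at 1 and non-cognate at 0. Selection of Caulobacter ParB libraries, four specificity codons randomised, took place in E. coli USO with a HIS3 reporter, site 19 bp from the promoter, over 48 hours at 37°C on M9-minus-histidine with 0.1 mM IPTG and 5 mM 3-AT.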
row,Variant,one-hybrid fitness for binding parS DNA
1,TPMA,≤ 0.2
2,ITAF,≤ 0.2
3,IEPC,≤ 0.2
4,FIPG,≤ 0.2
5,CGSY,≤ 0.2
6,GSRI,≤ 0.2
7,PPAG,≤ 0.2
8,PNTD,≤ 0.2
9,YPHM,≤ 0.2
10,SISM,≤ 0.2
11,NHGG,≤ 0.2
12,LNGS,≤ 0.2
13,WLHV,≤ 0.2
14,YHYR,≤ 0.2
15,LRVN,≤ 0.2
16,VTIG,≤ 0.2
17,QIPW,≤ 0.2
18,DPNK,≤ 0.2
19,QAVD,≤ 0.2
20,KRAE,≤ 0.2
21,NLDW,≤ 0.2

row,Variant,one-hybrid fitness for binding parS DNA
1,NWHF,≤ 0.2
2,WVAR,≤ 0.2
3,QCHL,≤ 0.2
4,PWVK,≤ 0.2
5,PQYL,≤ 0.2
6,QPFG,≤ 0.2
7,LWNL,≤ 0.2
8,LEHG,≤ 0.2
9,IICS,≤ 0.2
10,QSNT,≤ 0.2
11,CPYD,≤ 0.2
12,RTYM,0.341
13,QPMF,≤ 0.2
14,RYIC,0.757
15,ELEI,≤ 0.2
16,QCGM,≤ 0.2
17,IRQA,≤ 0.2
18,QNGA,≤ 0.2
19,PAKK,≤ 0.2
20,EKLG,≤ 0.2
21,WTEC,≤ 0.2

row,Variant,one-hybrid fitness for binding parS DNA
1,TEDK,≤ 0.2
2,NRLS,≤ 0.2
3,AGTY,≤ 0.2
4,HGVT,≤ 0.2
5,ICSC,≤ 0.2
6,AQQS,≤ 0.2
7,VRPA,≤ 0.2
8,VLVW,≤ 0.2
9,PNFY,≤ 0.2
10,HFRL,≤ 0.2
11,SVVI,≤ 0.2
12,VFPV,≤ 0.2
13,RNKI,≤ 0.2
14,NMDR,≤ 0.2
15,LRSC,≤ 0.2
16,GPTV,≤ 0.2
17,NPTR,≤ 0.2
18,YKQG,≤ 0.2
19,EMRM,≤ 0.2
20,ANSE,≤ 0.2
21,TVNF,≤ 0.2

row,Variant,one-hybrid fitness for binding parS DNA
1,CKDC,≤ 0.2
2,IHVK,≤ 0.2
3,KASG,≤ 0.2
4,FLHS,≤ 0.2
5,TKHD,≤ 0.2
6,PLLN,≤ 0.2
7,RWLL,≤ 0.2
8,APCT,≤ 0.2
9,ILTK,≤ 0.2
10,ADMR,≤ 0.2
11,MCRN,≤ 0.2
12,YLPL,≤ 0.2
13,EALS,≤ 0.2
14,LSTG,≤ 0.2
15,HDTC,≤ 0.2
16,DRLT,≤ 0.2
17,RKAP,≤ 0.2
18,KEQC,≤ 0.2
19,GYWR,≤ 0.2
20,AVES,≤ 0.2
21,AINS,≤ 0.2
